Reference: PubChem BioAssay AID322 (DTP/NCI, 2004)
Toxic doses and inconclusive results are not listed. A number of entries come with more than one value. They are shown here; other results are not. The source may hold further records. Values given together are repeated measurements across runs, samples, wells, individuals or studies.

System: CD2F1 mice, P388/ADR leukemia ip, median survival T/C
Experiment: NCI In Vivo Anticancer Drug Screen. Data for tumor model P388 Leukemia resistant to Adriamycin; NSC 123127, Developed at Scr 08 (intraperitoneal) in CD2F1 (CDF1) mice
Conditions: endpoint: median survival time, higher = longer survival
Protocol: The antitumor activity of compounds was measured in mice bearing transplantable tumors. Survival or tumor size were measured and the results are expressed as the measurement made in the treated group (T) divided by the measurement made in the vehicle treated control group (C). The tumor model used in this assay is P388 Leukemia resistant to Adriamycin; NSC 123127, Developed at Scr 08 (intraperitoneal) in CD2F1 (CDF1) mice

COc1cc(NCc2ccc3nc(N)nc(N)c3c2C)cc(OC)c1OC
T/C (dose: 90.0 mg/kg/injection, schedule: Q01DX009 (ip), vehicle: distilled water + Tween-80): 115 % of control and 160 % of control

CCOC1NC(=O)Oc2ccccc21 (centres undefined)
T/C (dose: 200.0 mg/kg/injection, schedule: Q01DX005 (ip), vehicle: Klucel (hydroxypropylcellulose) (HPC)): 123 % of control and 158 % of control

c1ccc(OCC2CO2)c(OCC2CO2)c1 (centres undefined)
T/C (dose: 30.0 mg/kg/injection, schedule: Q01DX005 (ip), vehicle: saline with Tween-80): 123 % of control and 161 % of control

COc1cccc2c1C(=O)c1c(O)c3c(c(O)c1C2=O)C[C@@](O)(C(=O)CO)C[C@@H]3OC1CC(N2CCOCC2C#N)C(O)C(C)O1 (some centres undefined)
T/C (dose: 18.75 micrograms/kg/injection, schedule: Q04DX003 (ip), vehicle: saline with Tween-80): 109 % of control and 175 % of control
